Results reported in publication PMC6919601, “Identification of Plasmodium dipeptidyl aminopeptidase allosteric inhibitors by high throughput screening” (PLoS ONE, 2019).
Several values for one entry are separate records, joined by “and”; a condition that tells them apart may be missing. Identical values can stand only once. The whole screen tested about 110,000 compounds, of which about 230 (0.21%) showed an effect of 50% or more. The list shows a part of the results.

molecular target: DPAP1 (Plasmodium falciparum, UniProt Q8IIJ9); assay: primary screen, percent inhibition; read by cleavage of a fluorogenic dipeptide substrate; higher = more effect of the substance; design: species or system P. falciparum D10 trophozoite lysates; single well
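Note: 30 min substrate incubation versus DMSO and 10 µM JCP410 controls.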

Sequence of DPAP1 (Q8IIJ9 whole entry, looked up): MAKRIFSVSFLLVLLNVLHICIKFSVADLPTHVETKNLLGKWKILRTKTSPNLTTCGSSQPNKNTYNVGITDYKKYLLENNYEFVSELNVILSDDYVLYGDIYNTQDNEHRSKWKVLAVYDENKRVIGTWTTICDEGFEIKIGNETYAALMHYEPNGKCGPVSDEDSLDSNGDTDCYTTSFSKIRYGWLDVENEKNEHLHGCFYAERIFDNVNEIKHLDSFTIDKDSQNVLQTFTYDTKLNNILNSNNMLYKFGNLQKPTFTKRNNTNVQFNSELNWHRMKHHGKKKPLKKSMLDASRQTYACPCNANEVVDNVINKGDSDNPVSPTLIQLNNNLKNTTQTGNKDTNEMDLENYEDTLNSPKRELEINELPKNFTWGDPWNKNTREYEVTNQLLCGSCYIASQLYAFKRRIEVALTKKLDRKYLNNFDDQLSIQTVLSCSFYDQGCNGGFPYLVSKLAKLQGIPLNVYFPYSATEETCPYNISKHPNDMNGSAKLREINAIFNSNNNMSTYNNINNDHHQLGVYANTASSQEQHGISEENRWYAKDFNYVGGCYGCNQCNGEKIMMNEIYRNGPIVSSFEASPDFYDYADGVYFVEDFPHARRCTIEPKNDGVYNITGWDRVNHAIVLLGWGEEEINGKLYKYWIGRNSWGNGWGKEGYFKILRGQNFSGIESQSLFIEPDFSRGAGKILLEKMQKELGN

Compound | % Inhibition @ 10 uM
Cc1c(C)n(CCN(C)C)c2ccc(C(=O)OCCN(C)C)cc12 | -1.77%
CCOC(=O)c1c(-c2ccccc2)oc2ccc(OCC(=O)O)cc12 | 6.22%
C=CCNC(=O)C1CCCN(S(=O)(=O)N2CCN(C(=O)OCC)CC2)C1 (stereo not shown) | 0.387%
COc1cc(CN2CCN(Cc3cccc(OC)c3OC)CC2)cc(OC)c1 | -0.564%
CC(Oc1ccccc1)C(=O)Nc1nnc(-c2ccc3c(c2)OCO3)s1 (stereo not shown) | 1.58%
Cc1cccc2c1-c1sc(C(=O)Nc3cnc4ccccc4c3)cc1CO2 | -1.37%
Cc1nc2cccnc2n1-c1ccc(CC(=O)NCc2ccc3c(c2)OCO3)cc1 | 8.76%
Cn1c(=O)c2c(nc(SCC(=O)NC(C)(C)C)n2Cc2ccccc2Cl)n(C)c1=O | 0.746%
CCC(C#N)OC(=O)[C@H](CC(C)C)NC(=O)OCc1ccccc1 (stereo partly shown) | 3.19%
COc1ccc(C2C(C(=O)Nc3cccnc3)=C(C)Nc3nc(CCCO)nn32)cc1OC (stereo not shown) | 3.81%
Cc1cc2nnc(SCC(=O)NCc3ccc4c(c3)OCO4)n2c2ccccc12 | 1.84%
CCOc1ccc2nc(NC(=O)CCn3cccc3)sc2c1 | -2.67%
CC(C)COc1ccc(C(=O)NC(CC(=O)O)c2ccccc2)cc1 (stereo not shown) | 0.222%
COc1ccc(C)cc1-n1nnc(-c2nc(-c3ccc4c(c3)OCO4)no2)c1N | 4.98%
CC(C)c1ccc2[nH]c(-c3ccc(N)cc3)nc2c1 | -4.54%
CCOc1ccc(CC/N=C2\C=C(O)OC23CCCCC3)cc1OCC | -3.5%
Oc1cccc(CN2CCN(c3ccccc3)CC2)c1 | 3.1%
N#Cc1ccc(Oc2ccc3c4c(cccc24)C(=O)C3=O)cc1 | 7.35%
O=C1c2cccnc2C(O)N1Cc1ccc(F)cc1 (stereo not shown) | -2.88%
C=CCOc1ccc(CNc2nccs2)cc1OCC | -3.43%
CCCn1c(=N)n(CC(O)c2ccc(Br)cc2)c2ccccc21 (stereo not shown) | 3.86%
COc1ccc(-c2noc(CN(C(=O)C(C)Oc3ccc(Br)cc3)C(C)C)n2)cc1 (stereo not shown) | 5.29%
O=C(O)CSc1nc2c(cnn2-c2ccccc2)c(=O)n1-c1ccccc1 | 2.36%
CCN(CC)CCN(C)C1CCCCCC1 | -1.21%
CCOC(=O)c1sc(NC(=O)c2cc(-c3ccc(OC)c(OC)c3)nc3ccccc23)nc1C | -3.02%

Compound | % Inhibition @ 10 uM
OCc1cccc[n+]1CCc1ccccc1 | 1.02%
COC(=O)CC(C)NC(C)Cc1ccccc1 (stereo not shown) | 13.7%
CCOC(=O)C1=C(C)N=c2s/c(=C\c3cc(Cl)ccc3O)c(=O)n2C1c1ccccc1 (stereo not shown) | 33.5%
COc1cc(/C=C2/C(=O)CNC2=O)ccc1O | -0.902% and -6.87%
COc1ccc2oc(=O)c(C(=O)Nc3nc4ccccc4s3)cc2c1 | -2.72%
CN1CCN(Cc2nnc(S)n2-c2ccc(F)cc2)CC1 | 4.17%
Cc1cccc(C)c1OCC(=O)Nc1sc(C)c(C)c1C(N)=O | 2.32%
Cc1ccccc1NC(=O)c1cc(S(=O)(=O)Nc2ccccn2)ccc1Cl | -3.52%
CC1CCCCC1NC1CCN(CCc2ccccc2)CC1 (stereo not shown) | -1.21%
CCOc1ccc(S(=O)(=O)/N=C2\C=C(NS(=O)(=O)c3ccccc3)C(=O)c3ccccc32)cc1 | -3.75%
Cc1ccc(Cl)cc1N1CCN(S(=O)(=O)N2CCCCC2)CC1 | 1.84%
Cc1nc2cc(NC(=O)NC3=NCCS3)ccc2n1C | 3.74%
O=C(CCCOc1ccccc1)NCc1ccco1 | -3.65%
COc1ccc(C2=NN(C(=O)c3cccc(Cl)c3)C(O)(C(F)(F)F)C2)cc1 (stereo not shown) | 2.65%
N#CC1=C(N)Oc2[nH]nc(-c3ccc4c(c3)OCO4)c2C1c1ccc(F)c(Br)c1 (stereo not shown) | -6.18%
O=C1c2ccccc2C(=O)N1COC1CCCCC1 | -7.27%
Cc1ccc2nc(Cl)c(C#N)cc2c1 | -0.703%
NC(=O)C1(N2CCCCC2)CCN(S(=O)(=O)c2ccc(Cl)s2)CC1 | 1.67%
O=C(NCC1CCCO1)c1ccc2c(O)c(S(=O)(=O)c3ccccc3)c(O)nc2c1 (stereo not shown) | -2.84%
CC(CNC(=O)c1ccc2nc(N)sc2c1)NC(=O)c1ccc2nc(N)sc2c1 (stereo not shown) | 0.777% and 0.163%
O=C(Nc1cc(Br)cc2cccnc12)c1ccc(Cl)cc1 | 1.08%
CC(C)NC(=O)C(=O)NCc1ccc(Cl)cc1 | 1.29%
O=C(NCc1ccccc1Cl)C1CCCN(S(=O)(=O)c2ccc(Br)s2)C1 (stereo not shown) | -3.87%
Clc1ccc(Cc2nc(-c3ccc(-n4cccc4)cc3)no2)cc1 | -6.23%
O=C(Nc1cccnc1)C1=Cc2sc3c(c2CS1)CCCC3 | 2.58%

Compound | % Inhibition @ 10 uM
COc1ccc(-c2noc(-c3ccc(Cl)cc3)n2)cc1OC | -10%
Oc1nc(CN2CCN(Cc3ccc4c(c3)OCO4)CC2)nc2ccccc12 | -1.12%
CC(C)C[C@H](Nc1nc(-c2cccc(NC(=O)OCc3ccc(Cl)c(Cl)c3)c2)cs1)C(=O)NCC#N | 15.9%
FC(F)(F)c1nc2ccccc2n1CCc1ccccc1 | 0.776%
CCN(CC)CCCN(C)C(=O)c1cc2c(s1)-c1c(C)cccc1OC2 | -1.37%
CO/C(O)=C1/C(C)=NC(=S)NC1c1ccc(C(C)C)cc1 (stereo not shown) | 1.43%
CCc1ccc(NS(=O)(=O)c2cc(Cl)ccc2Cl)cc1 | -0.351%
Cc1cc(C(=O)NC(C)C2CC2)c(Cl)cc1Cl (stereo not shown) | 1.21%
Cc1cccc(OCC(=O)Nc2noc3ccccc23)c1 | 2.19%
CC1CC(C)CN(Cc2nc3c(c(=O)n(C)c(=O)n3C)n2Cc2cccc(Cl)c2)C1 (stereo not shown) | 1.23%
N#Cc1c(/N=C/c2cc(Cl)cc(Cl)c2O)sc2c1C1CCN2CC1 | -1.81%
CC(C)CCN1C(=O)c2ccc(C34CC5CC(CC(C5)C3)C4)cc2C1=O | -1.72%
Cc1cc(C)c(OCC(=O)N(Cc2sccc2C)C2CCS(=O)(=O)C2)c(C)c1 (stereo not shown) | -2.85%
O=C1N=C(Nc2ccc(Br)cc2)S/C1=C1\C(=O)Nc2ccccc21 | 4.03%
CCC1CC2CCN1C([C@@H](O)c1ccnc3ccccc13)C2 (stereo partly shown) | 6.77%
Cc1ccc(C)c(S(=O)(=O)c2nnn3c2nc(N2CCOCC2)c2ccccc23)c1 | 1.89%
Cc1cc2c(c(=O)n1Cc1cccnc1)C(c1cc3c(cc1Br)OCO3)C(C#N)=C(N)O2 (stereo not shown) | -3.16%
O=C(CN(Cc1ccccc1)S(=O)(=O)c1ccc(F)cc1)N1CCCCCC1 | 1.02%
CN(C1CCCCC1)S(=O)(=O)N1CCCC(C(=O)NCCCc2ccccc2)C1 (stereo not shown) | -5.65%
COc1ccc(CNc2nc(-c3ccccc3)nn2C(=O)c2ccco2)cc1 | -6.71%
O=C(NCc1ccco1)c1ccc2ccccc2c1 | 1.13%
Cc1ccc(-c2ccc(=O)n(CCC(=O)NCCN3C(C)CCCC3C)n2)cc1 (stereo not shown) | 1.62%
COc1ccc(Cl)cc1-n1nnc(-c2nc(-c3ccc4c(c3)OCO4)no2)c1N | 0.331%
CCCc1cc2c3c(c(=O)oc2cc1O)CCC3 | -3.38%
CCCCCc1ccc(-c2nc(-c3ccc(Br)cc3)no2)cc1 | 1.41%

Compound | % Inhibition @ 10 uM
O=C(O)c1cnc(-c2ccccc2)nc1N1CCOCC1 | 5.58%
CCCc1cc(O)n2nc(-c3cccc(Br)c3)cc2n1 | -4.82%
Cc1nc2c(-c3ccc(F)cc3)c(C)nn2c(C)c1CCC(=O)NC1CCCC1 | -2.25%
Cc1ccccc1-c1ccccc1N | -0.305%
COCCCNC(=O)Cc1c(C(=O)O)[nH]c2ccc(Cl)cc12 | -1.59%
COc1cc(NC(=O)Nc2ccc(Cl)cc2)cc(OC)c1 | 3.8%
O=C(N[C@H](/C=C/S(=O)(=O)c1ccccc1)CCc1ccccc1)[C@H](CS(=O)(=O)Cc1ccccc1)NC(=O)N1CCOCC1 | -3.49%
COc1ccc(C2C3CCc4cc(OC)ccc4C3=NN2C(C)=O)cc1 (stereo not shown) | -6.11%
COc1cccc(CN2C(=O)c3cccc(N)c3C2=O)c1 | -1.57%
O=C(O)c1ccc2cc(-c3ccccc3)[nH]c2c1 | -5.1%
C=CCOC(=O)C1=C(C)N=C2CCCC(O)=C2C1c1cccc(Cl)c1 (stereo not shown) | -6%
O=C(/C(=C(\O)c1ccccc1)[n+]1ccc2ccccc2c1)c1ccc(Cl)cc1 | 0.343%
Cc1ccc(NC(=O)CN2C(=O)S/C(=C\c3ccccc3C)C2=O)cc1 | -5.4%
CC(=O)c1cccc(NC(=O)c2scc3c2CCCC3)c1 | -1.06%
COc1ccc(C2CC(=O)Nc3ccc4ccccc4c32)c(OC)c1 (stereo not shown) | 4.07%
COc1ccc(C(CC(=O)O)NC(=O)Cc2ccc(Cl)cc2)cc1 (stereo not shown) | 0.248%
CS(=O)(=O)N(CC(=O)N1CCOCC1)c1cc(Cl)cc(Cl)c1 | -8.76%
CC(=O)N1c2ccccc2N=C2CC(C)(C)CC(O)=C2C1c1cccc(Br)c1 (stereo not shown) | 0.674%
N#CC1=C(N)Oc2c(c(O)nc3ccccc23)C1c1ccc(C(F)(F)F)cc1 (stereo not shown) | -4.04%
CCc1nnc(NC(=O)Cn2ncc3c2-c2cc(C)ccc2OC3)s1 | 1.77%
Cc1c(C(=O)Nc2nc3ccccc3s2)sc2ncn(CC(=O)N3CC(C)CC(C)C3)c(=O)c12 (stereo not shown) | 1.2%
O=C(CCCc1ccccc1)NCc1cn2ccsc2n1 | 5.65%
COc1cccc(-c2cc(C(F)(F)F)nc(-n3nnnc3C)n2)c1 | 1.82%
COCCCNC(=O)/C(C#N)=C/c1c(Oc2cccc(C)c2C)nc2ccccn2c1=O | -5.1%
CC(NC(=O)C1CCCN(C(=O)N(C)C)C1)c1ccccc1 (stereo not shown) | -2.99%
